The values that follow come from article PMC5806898.

In experiment [1] the target is T1, GST followed by the N-terminal 709 residues of SPG15 (UniProt Q68DK2).
T1 sequence: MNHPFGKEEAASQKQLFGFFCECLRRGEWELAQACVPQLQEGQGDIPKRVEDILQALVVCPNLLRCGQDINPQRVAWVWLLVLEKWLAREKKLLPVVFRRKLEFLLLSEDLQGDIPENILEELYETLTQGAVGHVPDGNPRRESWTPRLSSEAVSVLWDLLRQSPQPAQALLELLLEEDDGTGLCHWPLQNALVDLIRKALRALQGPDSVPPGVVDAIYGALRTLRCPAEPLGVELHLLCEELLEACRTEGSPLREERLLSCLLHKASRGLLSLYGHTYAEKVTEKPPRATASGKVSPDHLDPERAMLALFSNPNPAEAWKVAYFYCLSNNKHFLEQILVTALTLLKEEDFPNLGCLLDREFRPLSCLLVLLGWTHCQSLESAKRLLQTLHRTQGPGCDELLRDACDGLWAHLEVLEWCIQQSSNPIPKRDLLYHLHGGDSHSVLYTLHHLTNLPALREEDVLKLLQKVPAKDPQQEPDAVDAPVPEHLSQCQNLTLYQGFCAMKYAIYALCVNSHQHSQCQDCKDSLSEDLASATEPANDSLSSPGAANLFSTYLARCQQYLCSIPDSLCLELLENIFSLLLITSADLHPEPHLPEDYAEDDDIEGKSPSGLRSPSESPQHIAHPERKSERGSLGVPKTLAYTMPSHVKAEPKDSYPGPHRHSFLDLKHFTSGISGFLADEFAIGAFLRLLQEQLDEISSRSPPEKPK
In words: pull-down; GST_15N1–709 as bait in HeLa cell lysate (PBS with 0.5% Triton X-100, pH 7.4; 2.5 mg/ml protein, 50 ug bait for every 4 ml), recovered with glutathione Sepharose 4B; western blot, bands quantified with IMAGEJ.

The target in experiment [2] is T1, GST followed by the N-terminal 709 residues of SPG15. In words: pull-down; GST_15N1–709 as bait in SH-SY5Y cell lysate (PBS with 0.5% Triton X-100, pH 7.4; 2.5 mg/ml protein, 50 ug bait for every 4 ml), recovered with glutathione Sepharose 4B; western blot, bands quantified with IMAGEJ.
Experiment [3] deals with SPG15-GFP (UniProt Q68DK2). The experiment is described as follows: co-IP; native immunoprecipitation with anti-GFP and protein A-Sepharose from HeLa cells stably expressing SPG15-GFP (control: HeLa cells); western blot, bands quantified with IMAGEJ, 3 repeats. A general note: Immunoblotting shows a protein as a band on a membrane.

For the substance “cation-independent mannose 6-phosphate receptor (a stretch of the chain, chain not printed)”, the percent of input pulled down is 0.15% in experiment [1], 0.4% in experiment [2] and 0.1% in experiment [3].
